Results reported in PubChem BioAssay AID1347073 (National Center for Advancing Translational Sciences (NCATS), 2019).
About 200 (0.44%) of roughly 45,000 compounds were called active. The shares of active, inactive and inconclusive entries below differ from those in the screen. Calls follow the shape of the dose curve; as a rule, active = well fitted activation curve with a large enough effect; inconclusive = small, poorly fitted or top-dose-only effect; inactive = no such curve, though single readings can be large or run the other way. A potency beside an inconclusive call is a rough fit, not a confirmed value.

Test: qHTS of TDP-43 Inhibitors: NCGC Sytravon Library Screen; also: nearly all actives have a fitted effect of over 55% in size; as to growth rescue (activation): 0% is about no effect
Conditions: yeast TDP-43 toxicity rescue, BacTiter-Glo growth, 24 h; growth rescue (activation): at 46.1 µM (top of the series)
Description: The goal of this project is to identify new chemical probes capable of reversing the toxicity associated with TDP-43 which is associated with frontotemporal lobar degeneration and amyotrophic lateral sclerosis. These compounds will provide a complementary approach to deciphering the tangled mechanisms of toxicity and protection that we have uncovered through genome-wide genetic screens and are beginning to uncover in a large-scale proteomics analysis with mass spectroscopy. To this end, a miniaturized assay was developed to be screened against the Molecular Libraries Small Molecule Repository (MLSMR) to discover TDP-43 inhibitors. Please note that in the set-up this yeast-based assay compounds that inhibit as TDP-43, have a read-out as activators. NIH Chemical Genomics Center [NCGC] NIH Molecular Libraries Probe Centers Network [MLPCN] Assay Submitter (PI): Susan Lindquist, Whitehead Institute/MIT MLPCN Grant: R21 NS060957
Dispense 2.5 microL yeast galactose medium per 1536-well plate, pin compound, dispense 2.5 microL TDP-43 expressing yeast in galactose medium at OD600=0.02 (pregrown in raffinose medium to mid-log phase) per well, incubate for 24 hr at 30 deg C, and cell growth will be measured using 5 microL of Bactiter/Glo reagent to entire plate and read using Luminescence Protocol in ViewLux.
Potency is read from the fitted curve at half-maximal effect; tags tell the direction and shape of the fitted curve.

SMILES | Potency | growth rescue (activation)
COc1cccc(N=Nc2ccc(O)c3ncccc23)c1 | inactive | 
O=c1oc(-c2ccccc2Cl)nc2ccsc12 | inconclusive: 11.2 µM [activator, partial curve, poor fit] | 
C/C(=N/Nc1nc(-c2ccccc2)cc(-c2ccc(F)cc2)n1)c1cccc(N)c1 | inconclusive: 20 µM [activator, single point] | 
O=C(Nc1ccc(Br)cc1)C1OCCc2ccccc21 (centres undefined) | inconclusive: 11.2 µM [activator, partial curve, poor fit] | 
CC(=O)Nc1ccc(NC(=O)[C@@H](NC(=O)c2ccccc2F)C(C)C)cc1 | inactive | 
CCCSc1ncc(Cl)c(C(=O)Nc2nc3ccc(C)cc3s2)n1 | inactive | 
Cc1cc(C)c2c(CC(=O)N(Cc3ccc(Cl)cc3)Cc3ccco3)coc2c1 | inactive | 
CC1(C(=O)NCc2ccc3c(c2)OCO3)CCN1C(=O)CCc1ccc(Cl)cc1Cl (centres undefined) | inconclusive: 20 µM [activator, partial curve, poor fit] | 
COc1ccccc1-c1csc(C(O)c2ccc(F)c(F)c2)n1 (centres undefined) |  | inconclusive: 130% [activator]
CC1=C(C(=O)N2CCN(c3ccccc3)CC2)C2(CCCCC2)OC1=O | inactive | 
O=C(OCc1ccc(Cl)c(Cl)c1)c1ccc[nH]1 | inconclusive: 12.6 µM [activator, single point] | 
Cc1ccc(-n2nc(C)c(C(=O)O)c2-n2cccc2)cc1 | inconclusive: 14.1 µM [activator, single point] | 
Cc1noc(C)c1-c1ccc(C(=O)NCc2ccco2)c2occc12 |  | inconclusive: 46.8% [activator]
Cc1ccnc2ccc(SC(F)(F)F)cc12 | inactive | 
Cc1ccc(-c2cc(C(F)(F)F)n3nc(C(=O)Nc4ccon4)cc3n2)cc1C | inconclusive: 35.5 µM [activator, single point] | 
Cc1cc2c(Nc3ccccc3)ncnc2s1 | inconclusive: 14.1 µM [activator, single point] | 
COc1cc(NC(=S)NCCC(c2ccccc2)c2ccccc2)cc(OC)c1 | inconclusive: 10 µM [activator, partial curve, poor fit] | 
Cc1cccc(C2c3[nH]c4ccccc4c3CCN2C(=O)c2cc(-c3cccn3C)n[nH]2)n1 (centres undefined) | inconclusive: 14.1 µM [activator, partial curve, poor fit] | 
O=C(Nc1ccccc1)OCc1cnc(Cl)s1 | inconclusive: 11.2 µM [activator, partial curve, poor fit] | 
Oc1c(C(Nc2ccccn2)c2cccnc2)cc(Cl)c2cccnc12 (centres undefined) | inconclusive: 35.5 µM [activator, single point] | 
COc1ccc2nc(NC(=O)c3cccnc3SC)sc2c1 | inconclusive: 17.8 µM [activator, partial curve, poor fit] | 
COc1ccc(-c2csc(C(NC(C)=O)c3ccc(F)c(F)c3)n2)cn1 (centres undefined) | inconclusive: 31.6 µM [activator, single point] | 

SMILES | Potency | growth rescue (activation)
COc1cc(S(=O)(=O)NC2CCCCC2)c(C)cc1C | inconclusive: 11.2 µM [activator, partial curve, poor fit] | 
CCN(CC(=O)Nc1ccc(NC(C)=O)cc1)Cc1c(O)ccc2cc(Br)ccc12 | inconclusive: 15.8 µM [activator, partial curve, poor fit] | 
COC(=O)c1ccc(CSc2nnc(CS(=O)Cc3ccc(Br)cc3)n2-c2ccccc2)cc1 (centres undefined) | inconclusive: 11.2 µM [activator, partial curve, poor fit] | 
O=C(Cc1ccccc1F)Nc1ccc(S(=O)(=O)Nc2ncccn2)cc1 | inactive | 
O=[N+]([O-])c1ccc(O)c(C=Nc2ccc3c(c2)OCO3)c1 | inconclusive: 10 µM [activator, partial curve, poor fit] | 
O=C(CNCc1ccccn1)Nc1cc(C(F)(F)F)ccc1N1CCOCC1 | inactive | 
O=C(COC(=O)Cc1c[nH]c2ccccc12)Nc1cccc2ccccc12 | inconclusive: 11.2 µM [activator, partial curve, poor fit] | 
COc1ccc2[nH]c3c(=O)n(CCCC(=O)NC4CCCCC4C)c(=S)[nH]c3c2c1 (centres undefined) | inactive | 
COc1ccccc1N1CCN(c2nc3ccccn3c(=O)c2C=O)CC1 | inconclusive: 35.5 µM [activator, partial curve, poor fit] | 
COc1ccc(OC)c(-c2cc(C(=O)N3CCN(c4ncccn4)CC3)c3ccccc3n2)c1 | inconclusive: 20 µM [activator, single point] | 
CC(=O)NC(c1cccc(F)c1)c1nc(-c2ccc(C)c(C)c2)cs1 (centres undefined) |  | inconclusive: 42.4% [activator]
Cc1ccc(S(=O)(=O)Nc2c(C)nc3nc[nH]n3c2=O)c(C)c1 | inactive | 
COc1ccc(CC(=O)Nc2nc(-c3ccc(F)c(F)c3)cs2)cc1OC | inconclusive: 28.2 µM [activator, single point] | 
CCCSc1ncc(Cl)c(C(=O)Nc2ccc(CC)cc2)n1 | inconclusive: 31.6 µM [activator, partial curve, poor fit] | 
O=C(NC(=S)Nc1ccccc1N1CCOCC1)c1cccs1 | inconclusive: 10 µM [activator, partial curve, poor fit] | 
COc1ccc2oc(C(=O)N3CCN(S(=O)(=O)c4ccc(F)cc4)CC3)c(C)c2c1 |  | inconclusive: 75% [activator]
COc1ccc(CNC(=O)c2cc3sccc3n2C)cc1 | active: 12.6 µM | 
O=C(NC(Cc1ccccc1)C(=O)O)/C(=C/c1cccc([N+](=O)[O-])c1)NC(=O)c1cccc(Br)c1 (centres undefined) | inactive | 
Cc1cccc(NC(=O)NC(C)CCc2ccccc2)c1 (centres undefined) | inconclusive: 14.1 µM [activator, single point] | 
O=C(Nc1ccccc1N1CCOCC1)c1cccc([N+](=O)[O-])c1 | inconclusive: 17.8 µM [activator, single point] | 
COC(=O)c1ccc(COc2ccc(/C=N/O)cc2OC)o1 | inactive | 
CCCS(=O)(=O)NC(=O)C1(C)CCN(C(=O)c2cc(C)on2)C1 (centres undefined) | inactive | 
